Experimental data from ChEMBL document CHEMBL4888484, “Replenishing the malaria drug discovery pipeline: Screening and hit evaluation of the MMV Hit Generation Library 1 (HGL1) against asexual blood stage Plasmodium falciparum ,using a nano luciferase reporter read-out” (2022).
About 540 (0.36%) of roughly 150,000 compounds showed an effect of 50% or more. The list shows a part of the results.

test system: Plasmodium falciparum; experiment: Primary screen in NF54 nanoGlo assay, in single point, at 2uM, 72h; a lower Z score goes with more inhibition; type: functional, Erythrocyte; details: timepoint 72 hour

Structure (SMILES)	% Inhibition [%]	Z score
O=C(CCOCC(F)(F)F)N1CCN(C2CCCC2O)CC1 (configuration not stated)	4	-0.56
CN(C)c1ccc(NS(=O)(=O)c2cnn(C)c2)c(C(F)(F)F)c1	1	-0.2
COc1ccc(CN(C(=O)C2OCCC2C)c2nccs2)cc1 (configuration not stated)	6	-0.73
O[C@H]1C[C@H]2CC[C@@H](C1)N2Cc1cccc2c1oc1ccccc12	15	-2.42
CCCCS(=O)(=O)N1CCC(C(=O)NC(C)(C)C(=O)NCC2CCCC2)CC1	-10	1.55
Cc1csc([C@H](C)NC(=O)c2ncc(F)cc2F)n1	-5	0.86
NC(=O)N1CCC[C@H](C(=O)N2CCC(F)(F)CC2)C1	-1	0.2
O=C1CC[C@@H](C(=O)NCc2ccc(N3CCCC3=O)cc2)NC(=O)N1	-3	0.54
CC(C)(C)c1nnc(CNC(=O)[C@H]2CCC(=O)N2)s1	0	0.01
C[C@H]1COc2ccc(-c3cccnc3)cc2CN1C(=O)C1CCOCC1	-7	0.83
COc1ccccc1CC(=O)N[C@@H](C)c1n[nH]c(C)n1	-7	0.88
O=C(N[C@H]1CCCc2c1cnn2-c1ccccc1F)c1ccccc1C(F)(F)F	1	-0.16
C[C@H](NCCN1N=C(c2ccccc2)CCC1=O)C(=O)NC1CCCC1	0	-0.06
O=C(CN1CCCCCC1)Nc1cccc(NCc2ccccn2)c1	5	-0.58
CCc1onc(C)c1[C@@H]1CCCN1C(=O)NCC(C)C	-14	2.11
COc1ccc(F)cc1C(=O)N1C[C@H]2CCC[C@@H](C2)C1	-14	2.42
CN(C)C[C@H]1CN(Cc2nc3ccccc3o2)CCO1	1	-0.21
CCN1CCN(C(=O)c2ccc3c(c2)nc2n3CCN(Cc3ccccc3)C2=O)CC1	-7	0.86
Cc1nn(CN(C)Cc2cnn(C)c2)c(C)c1Br	-11	1.42
CCn1cnnc1CNC(=O)c1cccc(C)n1	12	-1.62
CCc1nsc(N2CC(C)N(CC#N)C(C)C2)n1 (configuration not stated)	-3	0.45
CC1CN(Cc2ccccn2)CCC1NC(=O)Nc1ccccc1 (configuration not stated)	-1	0.15

Structure (SMILES)	% Inhibition [%]	Z score
CC(O)CCNC(=O)NC1CCC(C)C(C)C1 (configuration not stated)	-16	2.03
N#Cc1c(N)nc2c(C(=O)Nc3ccccc3Cl)c(Nc3ccccc3)sc2c1-c1ccccc1	32	-3.66
CC(=O)[C@H]1CCN(C(=O)c2c[nH]c3ccccc23)C1	-13	2.41
COc1cc2c(cc1O)NC(=O)C[C@H]2c1cccnc1OC	-11	2.05
O=C(O)CCCCNC(=O)OCc1ccccc1	-5	0.81
CC(=O)c1ccccc1-c1ccc2ncnc(NCCO)c2c1	-8	1.13
COCCCNC(=O)CN1C(=O)c2ccccc2Oc2ncccc21	-18	1.89
Cc1cc(N2CCN(Cc3ccc(Cl)cc3)CC2)c2nncn2n1	-2	0.2
CCN(CC)S(=O)(=O)c1ccc(NC(=O)CON=C(N)c2cnn(C)c2)cc1	-5	0.71
O=C(CCc1cn2ccccc2n1)N1Cc2cnn(CCO)c2C1	-15	2.67
N#CCN1CCC[C@H]1c1nc2ccccc2s1	-12	1.88
COc1cc(-c2nccn2CCc2cccs2)cc2c1OCO2	9	-1.72
COc1ccc([C@@H]2CC(=O)N(Cc3nn(C)cc3Cl)C(=O)N2)cc1	-4	0.77
Cc1[nH]c(C(=O)O)c(C)c1C(=O)N1CCC[C@H]1c1ccc(CN(C)C)cc1	0	-0.02
NC(=O)c1nc(-c2ccccc2)n2c1CCN(C(=O)NCCc1ccccc1)CC2	0	-0.02
CN(C[C@H]1COCCO1)C(=O)c1cncc(F)c1	5	-0.41
Cc1oncc1C(=O)N1CCC(C(=O)NC2CC2c2cccc(F)c2)CC1 (configuration not stated)	1	-0.12
COC1CS(=O)(=O)CC1NC(=O)NC1CC(=O)N(Cc2ccccc2)C1C (configuration not stated)	-16	2.87
Cc1cc(C(=O)Nc2sc3c(c2C#N)C(C)C(C)CC3)on1 (configuration not stated)	2	-0.25
COc1cc(-c2nccc(N)n2)c(Cl)cn1	-7	0.95
C[C@]1(CNC(=O)CCc2ccc(F)cc2)CCC(=O)N1	-14	1.89
Brc1cncc(NCCc2nnc(-c3ccco3)[nH]2)c1	-7	0.96

Structure (SMILES)	% Inhibition [%]	Z score
C=C(C)CN(C)c1ccc(C(=O)N2CCC(CN3CCCC3=O)CC2)cn1	-8	0.9
CCC(CC)n1c(=O)n(Cc2nc(COC)no2)c2cc(C(=O)O)cnc21	8	-1.04
Cc1cccc(S(=O)(=O)N2CCC(c3nccn3CC(N)=O)CC2)c1	-10	1.44
Cc1csc([C@@H](C#N)C(=O)c2ccnc(N(C)C)c2)n1	-2	0.24
COc1cccc(CNC(=O)COCC(=O)Nc2ccccc2)c1	-2	0.29
O=S(=O)(c1ccc(F)cc1)N1CC(N2CC(F)(F)C[C@H]2COCc2ccccc2)C1	-20	2.31
CC(C)(C)c1ccc(Cn2c(C(=O)NCc3ccco3)cc3cc(NC(=O)c4ccc(C(C)(C)C)cc4)ccc32)cc1	8	-0.94
Cc1ccc(CN(CCO)CCn2cc[nH]c2=O)s1	2	-0.35
COc1cccc(C(=O)N2CCN(C(=O)c3ccc(=O)n(C)c3)CC2)c1	-2	0.35
C=CCOc1cccc(NC2CCOCC2)c1	-13	1.2
CC(C)c1csc(C(=O)N2CCC(CNC(=O)c3ccnnc3)CC2)n1	-14	1.22
O=C(NCCc1ccsc1)c1ncoc1C(F)(F)F	1	-0.2
CNC(=O)CCCC(=O)N1CCCC1C1CCCc2ccccc21 (configuration not stated)	-5	0.69
CCOCCN1CC[C@@]2(CCCN(Cc3cc(OC)ccc3F)C2)C1	4	-0.78
Cc1ccc(CNC2CCN(S(=O)(=O)C(C)C)CC2C)o1 (configuration not stated)	0	-0.03
CCn1ccc(C(=O)N2CCOc3ccc(CN4CCOCC4)cc3C2)n1	11	-2.19
Cc1cccnc1C1CCCC(Nc2ccc(CNC(N)=O)cc2)C1 (configuration not stated)	-8	0.84
O=C(Cc1ccon1)N(Cc1ccccc1)CC1(O)CCCC1	11	-1.39
CCNC(=O)[C@H]1CCN(S(=O)(=O)c2ccc3[nH]c(=O)n(C)c(=O)c3c2)C1	-11	1.57
CC1CN(C)CCN1C(=O)C1CC1c1ccco1 (configuration not stated)	-8	1.06
Cc1cccc(NC(=O)C(Nc2cccc(C)c2)(c2ccccc2)c2ccccc2)c1	-8	1.06
O=C(N[C@@H](Cc1ccccc1)C(=O)O)C1CCOC1 (some centres not stated)	-7	0.88

Structure (SMILES)	% Inhibition [%]	Z score
Cc1cc(Cl)cc2c1NC(=O)C21NC(CCC(N)=O)[C@H]2C(=O)N(Cc3ccccc3Cl)C(=O)[C@H]21 (some centres not stated)	8	-1
COc1cc(=O)n(-c2ccccc2)cc1C(=O)N1CC(Oc2cc(C)n(C3CC3)c(=O)c2)C1	-6	0.97
c1ccc(CN2CCC[C@H]2c2nc(-c3ccncc3)no2)cc1	17	-2.2
Cn1c(N2CCOCC2)nc2cc(-c3nc([C@H]4CCOC4)no3)ccc21	-21	2.11
COc1cc2c(cc1OC)CN(C(=O)Cn1cnc3ccccc3c1=O)CC2	-6	0.94
CS(=O)(=O)CCOc1ccc(Cl)cc1NC1CCCC1	6	-0.65
CC(C)(CNC(=O)c1cnc[nH]1)C1(O)CCCC1	-8	1.43
O=C(NCc1cccnc1)[C@H]1CCCN(S(=O)(=O)c2ccc3ccccc3c2)C1	-7	1.46
CN(C)S(=O)(=O)N1CCC2(CCC(=O)N(CCc3ccccn3)C2)CC1	-12	1.7
Cc1ccc(-c2noc(-c3ccc(CS(=O)(=O)Cc4ccccc4C)o3)n2)cc1	-2	0.29
CN1CCC2(CC1)CCN(C(=O)c1ccccc1-c1ccccc1)C2	-5	0.74
C[C@H](NC(=O)c1cc(Br)c[nH]1)C1CC1	-6	0.86
CCn1c(-c2cc(NC(=O)COC)[nH]n2)c(C)c2ccccc21	4	-0.52
CC(C)N(C)c1cccc(NC(=O)N(C)CCc2cnccn2)c1	-7	1.01
C[C@](O)(CNC(=O)NCCc1ccsc1)c1ccc(F)cc1	-4	0.44
COCCNc1nc(-c2ccc(C#N)cc2)cc(C(C)(C)C)n1	-16	1.44
Cc1cn(C)c(=O)n(Cc2nc(C(F)(F)F)cs2)c1=O	-2	0.29
CC(C)c1ccc(N2CC[C@H](CN(C)C)C2)nn1	-4	0.45
O=C1CCCCCN1CC(=O)N1CCc2ccccc2C1	-7	0.97
CC(C)CNC(=O)CCc1c(-c2ccc(Cl)cc2)nc2ccc(-c3ccccc3)cn12	3	-0.5
